# The other results are listed elsewhere or left out.
# Key:
# Assay in all cases: glycan array binding signal (z-score within array); higher = stronger binding
# Settings in all cases: glycan notation: IUPAC condensed, linker removed
# [1] = target: Neu5Ac(a2-3)Gal(b1-4)GlcNAc(b1-6)GalNAc
# In short: (§1)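 Glycan array data were curated from 3228 arrays in the Consortium for Functional Glycomics database and kept only where the protein sequence was available. Glycan names were converted to IUPAC-condensed notation, and columns mapping to the same glycan were averaged. The binding signal is a within-array Z-score, averaged across arrays of the same protein sequence at different concentrations or buffers and across linkers. Negative Z-scores can be read as non-binding.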
# [2] = target: Neu5Ac(a2-3)Gal(b1-4)GlcNAc(b1-6)[Gal(b1-3)]GalNAc
# In short: as §1
# [3] = target: Neu5Ac(a2-3)Gal(b1-4)GlcNAc(b1-6)[Neu5Ac(a2-3)Gal(b1-3)]GalNAc
# In short: as §1
# [4] = target: Neu5Ac(a2-3)Gal(b1-4)GlcNAc6S
# In short: as §1
# [5] = target: Neu5Ac(a2-3)Gal(b1-4)[Fuc(a1-3)]GlcNAc
# In short: as §1
# [6] = target: Neu5Ac(a2-3)Gal(b1-4)[Fuc(a1-3)]GlcNAc(b1-2)Man
# In short: as §1
# [7] = target: Neu5Ac(a2-3)Gal(b1-4)[Fuc(a1-3)]GlcNAc(b1-3)Gal
# In short: as §1
# [8] = target: Neu5Ac(a2-3)Gal(b1-4)[Fuc(a1-3)]GlcNAc(b1-3)Gal(b1-4)GlcNAc
# In short: as §1
# [9] = target: Neu5Ac(a2-3)Gal(b1-4)[Fuc(a1-3)]GlcNAc(b1-3)Gal(b1-4)[Fuc(a1-3)]GlcNAc(b1-3)Gal(b1-4)[Fuc(a1-3)]GlcNAc
# In short: as §1
# [10] = target: Neu5Ac(a2-3)Gal(b1-4)[Fuc(a1-3)]GlcNAc(b1-3)GalNAc
# In short: as §1
# [11] = target: Neu5Ac(a2-3)Gal(b1-4)[Fuc(a1-3)]GlcNAc(b1-6)[Gal(b1-3)]GalNAc
# In short: as §1
# [12] = target: Neu5Ac(a2-3)Gal(b1-4)[Fuc(a1-3)]GlcNAc(b1-6)[Neu5Ac(a2-3)Gal(b1-3)]GalNAc
# In short: as §1
# [13] = target: Neu5Ac(a2-3)Gal(b1-4)[Fuc(a1-3)]GlcNAc6S
# In short: as §1
# [14] = target: Neu5Ac(a2-3)Gal6S(b1-4)GlcNAc
# In short: as §1
# [15] = target: Neu5Ac(a2-3)Gal6S(b1-4)[Fuc(a1-3)]GlcNAc
# In short: as §1
# Neu5Ac(a2-3)GalNAc = target: Neu5Ac(a2-3)GalNAc
# In short: as §1
# [16] = target: Neu5Ac(a2-3)GalNAc(b1-4)GlcNAc
# In short: as §1
# [17] = target: Neu5Ac(a2-3)[GalNAc(b1-4)]Gal(b1-4)Glc
# In short: as §1
# [18] = target: Neu5Ac(a2-3)[GalNAc(b1-4)]Gal(b1-4)GlcNAc
# In short: as §1
# [19] = target: Neu5Ac(a2-3)[GalNAc(b1-4)]Gal(b1-4)GlcNAc(b1-3)GalNAc
# In short: as §1
# [20] = target: Neu5Ac(a2-3)[Neu5Ac(a2-6)]GalNAc
# In short: as §1
# Neu5Ac(a2-6)Gal = target: Neu5Ac(a2-6)Gal
# In short: as §1
# [21] = target: Neu5Ac(a2-6)Gal(b1-3)GlcNAc(b1-3)[Gal(b1-4)GlcNAc(b1-6)]Gal(b1-4)Glc
# In short: as §1
# Neu5Ac(a2-6)Gal(b1-4)Glc = target: Neu5Ac(a2-6)Gal(b1-4)Glc
# In short: as §1
# [22] = target: Neu5Ac(a2-6)Gal(b1-4)GlcNAc
# In short: as §1
# [23] = target: Neu5Ac(a2-6)Gal(b1-4)GlcNAc(b1-2)Man
# In short: as §1
# [24] = target: Neu5Ac(a2-6)Gal(b1-4)GlcNAc(b1-2)Man(a1-3)Man(b1-4)GlcNAc(b1-4)GlcNAc
# In short: as §1
# [25] = target: Neu5Ac(a2-6)Gal(b1-4)GlcNAc(b1-2)Man(a1-3)[Gal(b1-4)GlcNAc(b1-2)Man(a1-6)]Man(b1-4)GlcNAc(b1-4)GlcNAc
# In short: as §1
# [26] = target: Neu5Ac(a2-6)Gal(b1-4)GlcNAc(b1-2)Man(a1-3)[GlcNAc(b1-2)Man(a1-6)]Man(b1-4)GlcNAc(b1-4)GlcNAc
# In short: as §1
# [27] = target: Neu5Ac(a2-6)Gal(b1-4)GlcNAc(b1-2)Man(a1-3)[GlcNAc(b1-4)][Neu5Ac(a2-6)Gal(b1-4)GlcNAc(b1-2)Man(a1-6)]Man(b1-4)GlcNAc(b1-4)GlcNAc
# In short: as §1
# [28] = target: Neu5Ac(a2-6)Gal(b1-4)GlcNAc(b1-2)Man(a1-3)[Man(a1-6)]Man(b1-4)GlcNAc(b1-4)GlcNAc
# In short: as §1
binder,measurement,setting,value
"MPA (Maclura pomifera), P18674 (protein) GVTFDDGAYTGIREINFEYNSETAIGGLRVTYDLNGMPFVAEDHKSFITGFKPVKISLEFPSEYIVEVSGYVGKVEGYTVIRSLTFKTNKQTYGPYGVTNGTPFSLPIENGLIVGFKGSIGYWLDYFSIYLSL",glycan array binding signal (z-score),[1],-0.205
same,glycan array binding signal (z-score),[2],-0.114
same,glycan array binding signal (z-score),[3],-0.111
same,glycan array binding signal (z-score),[4],-0.331
same,glycan array binding signal (z-score),[5],-0.223
same,glycan array binding signal (z-score),[6],-0.296
same,glycan array binding signal (z-score),[7],-0.285
same,glycan array binding signal (z-score),[8],-0.137
same,glycan array binding signal (z-score),[9],-0.116
same,glycan array binding signal (z-score),[10],0.018
same,glycan array binding signal (z-score),[11],0.082
same,glycan array binding signal (z-score),[12],-0.03
same,glycan array binding signal (z-score),[13],-0.118
same,glycan array binding signal (z-score),[14],-0.268
same,glycan array binding signal (z-score),[15],-0.197
same,glycan array binding signal (z-score),Neu5Ac(a2-3)GalNAc,-0.266
same,glycan array binding signal (z-score),[16],-0.204
same,glycan array binding signal (z-score),[17],-0.201
same,glycan array binding signal (z-score),[18],-0.218
same,glycan array binding signal (z-score),[19],-0.089
same,glycan array binding signal (z-score),[20],-0.186
same,glycan array binding signal (z-score),Neu5Ac(a2-6)Gal,-0.228
same,glycan array binding signal (z-score),[21],-0.172
same,glycan array binding signal (z-score),Neu5Ac(a2-6)Gal(b1-4)Glc,-0.108
same,glycan array binding signal (z-score),[22],-0.226
same,glycan array binding signal (z-score),[23],-0.281
same,glycan array binding signal (z-score),[24],-0.17
same,glycan array binding signal (z-score),[25],-0.065
same,glycan array binding signal (z-score),[26],-0.302
same,glycan array binding signal (z-score),[27],-0.496
same,glycan array binding signal (z-score),[28],-0.228

# Source: the supplement of paper PMC8728848
